Laboratory results published in ChEMBL document CHEMBL4888484, “Replenishing the malaria drug discovery pipeline: Screening and hit evaluation of the MMV Hit Generation Library 1 (HGL1) against asexual blood stage Plasmodium falciparum ,using a nano luciferase reporter read-out” (2022).
Out of some 150,000 compounds screened, about 540 (0.36%) showed an effect of 50% or more. Some of the results follow.

The compounds below were run on Plasmodium falciparum (assay: Primary screen in NF54 nanoGlo assay, in single point, at 2uM, 72h; a lower Z score goes with more inhibition). Conditions: timepoint 72 hour.
Type: functional, Erythrocyte

Row | Compound | % Inhibition [%] | Z score
1 | C=CCNC(=O)C1(NC(=O)[C@H](C)n2cncn2)CCCCC1 | -14 | 1.26
2 | CC(=O)N1CCC[C@H](C(=O)N2CCc3cc(C(N)=O)n(C)c3C2)C1 | 6 | -1.04
3 | Cc1ccc(=O)n(CN2CCc3c(Br)cccc3C2)n1 | -10 | 1.42
4 | Brc1ccccc1OCCN1CCc2[nH]ncc2C1 | -1 | 0.11
5 | Cc1ncncc1C(=O)NCCc1cccc(Br)c1C | -20 | 2.73
6 | COC(=O)c1[nH]nc(C2CC2)c1Cl | -1 | 0.16
7 | Cc1ccccc1C(CN1CCOCC1)NC1CC(C)OC(C)C1 (stereo unspecified) | -10 | 1.03
8 | CC1CN(C(=O)C2CCN(CC3CCC=CO3)CC2)CC(C)O1 (stereo unspecified) | -4 | 0.4
9 | O=C(Cn1nc(-c2ccccc2)c2cnc3ccccc3c21)Nc1cccc(F)c1 | -25 | 2.24
10 | C=CCC[C@@H](CN(C)Cc1cccnc1)Oc1cnccn1 | -6 | 1.16
11 | OC1(CN2CCC(Nc3ncncc3Br)CC2)CCCCC1 | -6 | 1.05
12 | CCNC(=O)[C@H]1CCN(C(=O)c2ccc(-c3ccc4c(c3)CCO4)cc2)C1 | -15 | 2.64
13 | O=C1CNC(=O)N1CCNc1snc2ccccc12 | -6 | 0.72
14 | c1ccc(-c2cncnc2N2CC(c3ncc(C4CC4)cn3)C2)cc1 | -9 | 1.44
15 | COc1ccc(CNC(=O)Cn2c(=O)c(-c3noc(C)n3)c3n(c2=O)CCCC3)cc1 | 5 | -0.66
16 | CCCOc1ccccc1[C@H](C)N1CC2(CCNCC2)CCC1=O | -2 | 0.23
17 | CC(C)N(C)S(=O)(=O)N1CCC[C@H]1c1nnc2ccccn12 | 1 | -0.19
18 | Cc1ccc(-c2cnc(C3CC3)o2)cc1S(=O)(=O)N1CCCc2ccccc21 | 5 | -0.92
19 | O=C(NC[C@H](O)COCC1CC1)c1cc(F)c(F)c(F)c1 | -5 | 0.7
20 | O=C1CCCCCN1Cc1ccccc1C(F)(F)F | 7 | -1.15
21 | O=C(CCc1nc(C2CC2)no1)OCCOc1ccc(Cl)cc1 | 0 | -0.06
22 | CC(=O)Nc1ccc(NC(=O)C(=O)NCCCN2CCCC2=O)cc1 | -18 | 2.83

Row | Compound | % Inhibition [%] | Z score
23 | C[C@H](Oc1ccc(Cl)cc1)C(=O)n1nnc2ccccc21 | -2 | 0.25
24 | CC(C)C1CC(CC(=O)N2CCOC(C(C)O)C2)CCO1 (stereo unspecified) | -13 | 2.28
25 | O=C(CCC(=O)N1CCC[C@H]1c1nc(C2CC2)no1)Nc1ccccc1 | -14 | 2.46
26 | COc1ccccc1[C@@H]1NC(=O)CN(C)C1=O | 13 | -1.7
27 | CCc1nc(CCNS(=O)(=O)c2c(Br)cc(F)cc2Br)sc1C | -11 | 1.69
28 | Cc1nn(C)c(C)c1CCC(=O)N1CCc2c(cccc2N2CCOC2=O)C1 | -8 | 1.34
29 | Cc1ccc(Nc2ccccc2NS(=O)(=O)c2ccc(S(=O)(=O)C(F)F)cc2)cc1 | -5 | 0.85
30 | C[C@@H](C(=O)N(CCC#N)c1ccccc1)n1ccnn1 | -2 | 0.3
31 | CCCCCn1c(=O)sc2c(NC(=O)OCC)c(F)cc(Cl)c21 | -10 | 1.31
32 | C=CCC1(OC)CCN(C(=O)c2ccc3nc(-c4ccccc4)cn3c2)CC1 | -8 | 0.89
33 | CN(C(=O)c1ccc(OCC2CCOCC2)nc1)c1ccccc1 | -20 | 3.76
34 | O=C(c1c[nH]c(=O)[nH]1)N1CCC(n2c(=O)[nH]c3ccccc3c2=O)CC1 | -20 | 2.59
35 | CCN1CCC[C@](C)(C(=O)N2CCN(C(=O)c3ccccc3)CC2)C1 | -22 | 3.26
36 | Cc1cc(C)n(CNc2ccccc2C)n1 | -1 | 0.08
37 | CCOC1CC(NC2CCN(Cc3ccccc3)CC2)C12CCCO2 (stereo unspecified) | 12 | -1.51
38 | O=C(NCC1CC1)C1Cc2cc(C(F)(F)F)ccc2N2CCN(c3ccccc3)CC12 (stereo unspecified) | -10 | 1.29
39 | Cc1nc(CN2C[C@H]3CN(C4CCCCC4)C[C@@]3(C(=O)O)C2)c(C)s1 | -3 | 0.56
40 | COc1cc(COCC2CCN(CC(=O)N3CCOCC3)CC2)cc(OC)c1 | -7 | 0.79
41 | Cc1noc(C)c1C(=O)N1CCCC1(C)C | -15 | 2.27
42 | Cc1nc2ncnn2c(N2CC3(CCN3Cc3ccccc3)C2)c1C | -5 | 0.52
43 | Cc1[nH]c(=O)c(C#N)cc1C(=O)N1CC[C@@]2(CCCN(CC3CCC3)C2=O)C1 | 2 | -0.3
